From PMC12136788 come the findings set out here.

Sequences and labels used below:
T1: UNK ZnF1-3 (human, UniProt Q9C0B0 31-174)
T1 sequence: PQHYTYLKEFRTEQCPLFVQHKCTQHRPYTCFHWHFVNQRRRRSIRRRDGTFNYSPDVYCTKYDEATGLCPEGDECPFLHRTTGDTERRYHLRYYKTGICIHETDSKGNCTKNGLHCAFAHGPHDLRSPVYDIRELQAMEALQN

B1: 134191691_134191811_1389_3pUTR_ENSG00000181904_ENST00000394976|human|control|control (ssRNA)
RNA: GGGAGUUCUACAGUCCGACGAUCAACCUAUCACUGCUCAAAGGCAAACACUGAAGAAUUAUUUCAGGUAUAAUGGUUAAAUCAAUUAAUGCCAUGUAGAUCAAUAAAUUACAAGCUGCUUAAACCUAAAACAUUAAAAAUAAGCAACAGAGGAUUGAGCAUCA
B2: chr6:31383068:31383069:+_ENSMUSG00000025609_ENSMUST00000026699|mus_hu|FALSE|FALSE (ssRNA)
RNA: GGGAGUUCUACAGUCCGACGAUCAGCCUUUUCAAUCAACUCUUCGCAAGCAUCAAAAUCACCCUUCAACACCAGCUUGUCAUGAAUAUCUGUUAACAUGGGAUGUUCCAGUGCAAUCUUGGUUUUCUUUUGCAGUGACUCAAACAACAGAGGAUUGAGCAUCA
B3: chr2:216986912:216986913:+_ENSG00000079246_ENST00000392132|hu_hu|FALSE|FALSE (ssRNA)
RNA: GGGAGUUCUACAGUCCGACGAUCCAGUUUUCUCAGACUCUCACUGAAUGAAUAAAUUUCAUCCAACCCAUCUUCACCUUCUAAAGAUAUCAUCACCAUUUUCACUAUCUCAAGACCUUCUUUUUGCUGUUCGGUAAUUCCUUUCAACAGAGGAUUGAGCAUCA
B4: chr11:103733960:103733961:-_ENSMUSG00000034187_ENSMUST00000103075|mus_hu|FALSE|FALSE (ssRNA)
RNA: GGGAGUUCUACAGUCCGACGAUCCAUUUUAACUUCCAGUCUUCCAGGUCUAAGAAGAGCCUCAUCUAUCAGAUCUGGUCUAUUGGUCAUUCCAAUGACUAGGAUGUUGUUUAGCUGCUCCACGCCAUCAAUUUUGGACAGCAACAACAGAGGAUUGAGCAUCA
B5: chr7:97110809:97110810:-_ENSMUSG00000030619_ENSMUST00000107234|mus_hu|motif|central (ssRNA)
RNA: GGGAGUUCUACAGUCCGACGAUCGCCACUCUUAGAAAGUAUCAAAUCGCCUAACCAUCGCACACAAUCAACAUAAUUCCGGUGUAUGUCUCUGGUAGAAAAAUCAGGAAAAUGGAUUUUCUGAGAAAUAAAUGGCCUGUUAGUCAACAGAGGAUUGAGCAUCA
B6: 121658421_121658541_2640_CDS_ENSMUSG00000032525_ENSMUST00000035112|mouse|control|control (ssRNA)
RNA: GGGAGUUCUACAGUCCGACGAUCACGAGGACAUUCCCAUUCAGGCUUGGGUUUUCCUUCUUCUCUGCCUUUCCCCUGCUUAUCAUUCAAUGCUUCCACUUUUCCCUGCUUCUCCUUCUCUGGGGCUGAGUAUACUUGAACAUGCAACAGAGGAUUGAGCAUCA
B7: 63378929_63382814_644_CDS_ENSMUSG00000038005_ENSMUST00000037190|mouse|control|control (ssRNA)
RNA: GGGAGUUCUACAGUCCGACGAUCAAAAGUCUUUGUCACAACCUUCUUAUCUCUCUGUCUCAUCUUCACGGUUCUCUGUUCCAGUGAGUAUCCUAGUUUUCUGGCUGCUUCUGUGAGUUUUUCAUCUAUGUUUUUCAAAAUGCUCAACAGAGGAUUGAGCAUCA
B8: chrX:11616105:11616106:-_ENSMUSG00000040363_ENSMUST00000043441|mus_hu|motif|central (ssRNA)
RNA: GGGAGUUCUACAGUCCGACGAUCGAUGUUAUAACACGGUAAGAGGGGGGUCUCUGAAAAUUCAAAUUCAAACACAUCGCGGUAGGCAUCGUCAUCAUCAUCCUGGUCUUCUGGUCCUGGGGGGUUGGCUAAAACAUCAUAGCCCAACAGAGGAUUGAGCAUCA
B9: chr12:45699863:45699864:+_ENSMUSG00000020598_ENSMUST00000020939|mus_mus|FALSE|FALSE (ssRNA)
RNA: GGGAGUUCUACAGUCCGACGAUCUGCAGCAUGUCUCAUGCAUCGUAUUGAACUGGAUCCCGCACAGGGAAUAAUGUAAUCUAUUGAUGAUGUUGUAUUUCUUUUUAAUCAGUUCCAAGGAAAUUGAGAAAAACCCCACUCUGACAACAGAGGAUUGAGCAUCA
B10: chr11:77340908:77340909:-_ENSG00000074201_ENST00000525064|hu_hu|hu_hu_hu_mus_True|18_98 (ssRNA)
RNA: GGGAGUUCUACAGUCCGACGAUCGUUUGGAUCCCUGGAUAAUGCAUGUAAACUAAUGGUGGGGUAUUCCAGUGAGAAUCCUAAUCCCGAACCAUCUAACCAGGACAGGCGGCUCUCAGCGAUGUAAAGCGUGCCGGUGCCGAGCAACAGAGGAUUGAGCAUCA
B11: chr3:138341159:138341160:+_ENSG00000158234_ENST00000393035|hu_hu|FALSE|FALSE (ssRNA)
RNA: GGGAGUUCUACAGUCCGACGAUCGAGACUUUUCCCAUUAAUUUCCAGAGUAUAUUCAUAAGCAAAACCACUGAUAGCGUCUAUAUUUAUGGUCGCUUUUGUCUUUGCAGCUCCAACAUAGAAUGUUUCUUUGCCCACUAAUUUCAACAGAGGAUUGAGCAUCA
B12: chr13:100204777:100204778:-_ENSMUSG00000052727_ENSMUST00000064762|mus_hu|FALSE|FALSE (ssRNA)
RNA: GGGAGUUCUACAGUCCGACGAUCCUCCGCAGGGUUUGCUGGAUGCCACACAAUCAAAGAUGAGACUGAAGUUAAGUAGGAAAUCGGGAGAUCUACUUCUUGACCAUUAGGCAGAAUGAAUUCAGCCUUGUCUUUGUUGGUACCCAACAGAGGAUUGAGCAUCA
B13: chr4:95690885:95690886:+_ENSMUSG00000028572_ENSMUST00000156910|mus_mus|mus_mus_mus_hu_False|18_28 (ssRNA)
RNA: GGGAGUUCUACAGUCCGACGAUCUUUAGAAAAUGUUAAAUACCAUGCUAAAAUAUUUUCAAAGGCUUAUUUUAUUUUACCAGAAGUCACAGGCAAGCAGACACUACAAACAUACAAAAAUACAAACCUCAACAAUAUAACUGUCAACAGAGGAUUGAGCAUCA
B14: chr2:42509997:42509998:+_ENSG00000143924_ENST00000318522|hu_mus|hu_hu_hu_mus_True|68_68 (ssRNA)
RNA: GGGAGUUCUACAGUCCGACGAUCUCGCUGAGUCCUCUCCUCAUAAUUAAACAGGACUACCACUGAGGCAAUGAAAUAAACUAUCUCCCCUGUGGGAAGCAGGUAUACAUUCGCUCUACAGUCCUUUCCUCGAUAACCGUAUACCAACAGAGGAUUGAGCAUCA
B15: chr1:44156729:44156730:-_ENSMUSG00000026049_ENSMUST00000150911|mus_mus|FALSE|FALSE (ssRNA)
RNA: GGGAGUUCUACAGUCCGACGAUCAAGGUAUUUUUAAUUUAACCUCUGUAUGACUCAUUUUCACUGUUGAAAAAUAAGCGUAAGGUGCACUACAUCUGAGAAGCAAAGGGCAUCUCUCUGAAAAGCAGAUUCUGUUGUAAAAGGCAACAGAGGAUUGAGCAUCA
B16: chr11:29408400:29408401:+_ENSMUSG00000032740_ENSMUST00000040182|mus_mus|motif|central (ssRNA)
RNA: GGGAGUUCUACAGUCCGACGAUCGUUAAAAACAUAAUCACUUUAUCUUGUAAAUGCUAUUUGCUGGAAAACCAUCUCACGGAAAAAAGUUUCAGAAAAAUGAUUUUAUCUUGGAUCCAUUUGUGAAUACCUAGUGCAGCUUAUCAACAGAGGAUUGAGCAUCA
B17: 151748726_151749016_1130_CDS_ENSG00000182134_ENST00000458431|human|control|control (ssRNA)
RNA: GGGAGUUCUACAGUCCGACGAUCCACAGUCAAGUCUUCAGGCACACUAUUCUCAUAGUGCUGGGUCAUCUCAUUGACAAGCUUAUCCAAUUGCAGGCUGCGGGAGCCAACGAUCUGGAUCCAGAAGUGGUUAGGGUGCUCAGACAACAGAGGAUUGAGCAUCA
B18: chr11:77336104:77336105:-_ENSG00000074201_ENST00000525064|hu_mus|hu_hu_hu_mus_False|18_18 (ssRNA)
RNA: GGGAGUUCUACAGUCCGACGAUCCUCACACAUUGCUGUGAACAUCGCCUCCAAUGCUGACUUAUCACUGGGCACAAAUCGAAAUUCAGAAAUGGGUUCAACAUCAUCAUUGUCUUCUUCCUCUUCUUCAGAGAGAGGUUCUUUCAACAGAGGAUUGAGCAUCA
B19: chr9:104964252:104964253:+_ENSMUSG00000032563_ENSMUST00000142424|mus_hu|FALSE|FALSE (ssRNA)
RNA: GGGAGUUCUACAGUCCGACGAUCAUCUGUUAUAUUAAAGAUUUUAACUGUCUGUUUCGGCGGCAAUCCAAGUUCCCGGUAAAAUUCCAAUAUGGAUGUAGCUUUACGAAAACGUGAUACAGUUUUUCCUCCUACAGACAGGGUCAACAGAGGAUUGAGCAUCA
B20: chr5:21390796:21390797:-_ENSMUSG00000042453_ENSMUST00000160791|mus_mus|FALSE|FALSE (ssRNA)
RNA: GGGAGUUCUACAGUCCGACGAUCGGUAUCUGCAUUAACUUUCUGCAUAAUACAAGUAGGUCAAAGUCCAGCAGCAAAAUAUUGCAACACAGCAAGUAGAUACAGUUUCAGUGUGUUAUACGGUAGAGAAGAAUACAUAAAGGACAACAGAGGAUUGAGCAUCA
B21: chr18:55283160:55283161:-_ENSG00000134440_ENST00000256854|hu_hu|FALSE|FALSE (ssRNA)
RNA: GGGAGUUCUACAGUCCGACGAUCGUUCUUCAACUGUGAUUUAGAAAUAACAUUCCACCUCUCAUUUUCUUUUUGUGAAUCUACGUAAAUGGUAGGAAAUGGUUCUUUCCCUACUGUCAUCAAAGCCUUUAGACCUGUUUUAAACAACAGAGGAUUGAGCAUCA
B22: 3781481_3781706_810_3pUTR_ENSG00000101224_ENST00000439880|human|control|control (ssRNA)
RNA: GGGAGUUCUACAGUCCGACGAUCAAGGCUUCCCUGCGGCUGGCCCACUCUGCCAGAGCAUGGGUGGAGCUGGGAUGUGUGGGCUUCCAUGGCAUCUUGAAGACAAAUCCAUCAUUCUCCUUGUCUUCCCCAGAGCUGCUGGCACAACAGAGGAUUGAGCAUCA

The other results are listed elsewhere or left out.

In this assay the target is T1, UNK ZnF1-3. Nature of the assay: nsRBNS (natural sequence RNA bind-n-seq); RBNS binding buffer (assumed for nsRBNS): 25 mM Tris pH 7.5, 150 mM KCl, 3 mM MgCl2, 0.01% Triton X-100, 500 ug/ml BSA, 20 U/ml SUPERase-In, 4 C; UNK is unkempt and MSI1 is Musashi-1; names of the RNAs are library labels; protein concentration not given here; high values mean tight binding.
In turn, B1 came in with a binding signal of 2.26 enrichment R.

Molecule B2 displayed a binding signal of 1.24 enrichment R.

The molecule B3 yielded a binding signal of 0.784 enrichment R.

B4 displayed a binding signal of 0.771 enrichment R.

In turn, B5 gave a binding signal of 1.42 enrichment R.

The molecule B6 had a binding signal of 0.598 enrichment R.

For B7, the binding signal is 0.349 enrichment R.

Regarding B8, the binding signal worked out at 1.28 enrichment R.

B9: the binding signal is 1.1 enrichment R.

The molecule B10 had a binding signal of 1.15 enrichment R.

B11 came in with a binding signal of 0.835 enrichment R.

Regarding B12, the binding signal stood at 1.14 enrichment R.

As for B13, the binding signal turned out to be 1.86 enrichment R.

Take B14: the binding signal is 0.916 enrichment R.

In the case of B15, the binding signal is 1.26 enrichment R.

On to B16, for which the binding signal was determined as 1.04 enrichment R.

Molecule B17 gave a binding signal of 1.14 enrichment R.

For the molecule B18, the binding signal worked out at 0.901 enrichment R.

The molecule B19 yielded a binding signal of 1.19 enrichment R.

The molecule B20 gave a binding signal of 1.42 enrichment R.

As for B21, the binding signal stood at 0.405 enrichment R.

Regarding B22, the binding signal was found to be 0.795 enrichment R.
